# The other results are listed elsewhere or left out. Further columns of the screen follow, without active or inactive calls. The list favours compounds with an active or inconclusive main result.
# Test: beta-lactam sensitization of Mtb H37Rv, H37Rv (AID 434955);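 note: growth measured after seven days incubation then overnight dye step; 0% = bacteria only wells and 100% = bacteria with antibiotic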
# Conditions: M. tuberculosis H37Rv growth with meropenem, percent inhibition; measured here: primary screen without meropenem; at 25 µM
row,Compound,inhibition
1,O=C(NCc1ccc(Cl)cc1)C1CCN(C(=O)Cc2ccccc2)CC1,-6.38%
2,Cc1ccc2c(c1)N(CC(=O)NC1CCC(C)CC1)C(=O)c1cccnc1O2 (centres undefined),-4.97%
3,O=C(N/N=C/c1cccc([N+](=O)[O-])c1)C(=O)N1CCCCCC1,2.87%
4,CCC(=O)NC(=S)Nc1ccc(S(=O)(=O)NC2CCCCC2)cc1,4.62%
5,O=C(Nc1nc2c(ccc3ccccc32)s1)c1ccco1,63.2%
6,COc1ccc(-c2ccc(SCC(=O)NC3CCCC3)nn2)cc1OC,-6.55%
7,COC(=O)c1c(-c2ccc(OC)cc2)oc2ccc(-c3cc(OC)c(OC)c(OC)c3)cc12,32.5%
8,CN(CC(=O)Nc1cccnc1)S(=O)(=O)c1cc(Cl)ccc1Cl,2.88%
9,CC(O)/C=C/c1ccc2ccccc2n1 (centres undefined),10.9%
10,Cc1cccc(C)c1OCc1cc(C(=O)N(C)Cc2cc(C3CC3)n[nH]2)no1,6.29%
11,CN(Cc1ccc(Cl)cc1Cl)C(=O)CNC(=O)c1ccco1,-2.92%
12,CCCC(C)c1nc(C(N)=O)c2[nH]c(=O)n(-c3ccc(OC)cc3OC)c2n1 (centres undefined),0.21%
13,Nc1nc(N)c2nc(CNc3ccc(C(=O)NC(CCC(=O)O)C(=O)O)cc3)cnc2n1 (centres undefined),15.5%
14,Cc1cc2nc(SCC(=O)Nc3nonc3C)c3c(c2cc1C)CCCC3,8.37%
15,COc1ccc(-n2c(=S)[nH]c3cc(C(=O)NCc4ccco4)ccc3c2=O)c(OC)c1,2.86%
16,CC(C)c1nc2cc(C(=O)N3CCN(c4cnccn4)CC3)ccc2o1,0.35%
17,CCc1cc2c(Sc3nc4ccccc4s3)ncnc2s1,11.1%
18,Cc1onc(-c2c(F)cccc2Cl)c1C(=O)Nc1sc2c(c1C(N)=O)CCC2,-5.61%
19,O=C(Oc1c(-c2ccccc2Cl)oc2ccccc2c1=O)c1ccc(Cl)cc1,24.7%
20,COc1cc(OC)c(OC)cc1CN1CCN(S(=O)(=O)c2ccc(F)cc2)CC1,-2.99%
21,COc1cccc(/C=N/NC(=O)c2cnccn2)c1O,4.49%
22,CCOc1cccc(NC(=O)C2CCCN(S(=O)(=O)c3ccc(OC)cc3)C2)c1 (centres undefined),-2.26%
23,COc1ccc(O)c(CN2CCC(n3nccc3NC(=O)CCOc3ccccc3)CC2)c1,8.62%
24,Cc1cc(C)n(CC(=O)N2CCCC(N3CCN(c4ccccc4C)CC3)C2)n1 (centres undefined),0.01%
25,CCc1nc2oc3cc(OC)ccc3c(=O)c2c(=O)n1Cc1ccccc1,-1.3%
26,O=C(CSc1nnc(CNC(=O)c2ccccc2)o1)Nc1ccc2c(c1)OCO2,-3.23%

row,Compound,inhibition
1,Cc1[nH]n(-c2nc(-c3cccc([N+](=O)[O-])c3)cs2)c(=O)c1C,63.3%
2,O=C(O)CCN1C(=O)/C(=C/c2ccc(-c3nc4ccccc4s3)o2)SC1=S,-4.77%
3,C[N+]1(C)[C@@H]2CC[C@H]1CC(OC(=O)C(c1ccccc1)c1ccccc1)C2 (some centres undefined),7.54%
4,COc1cccc(N2CC(C(=O)Nc3nnc(SCC(=O)NC4CCCC4)s3)CC2=O)c1 (centres undefined),-2.67%
5,CC1(C)CC(=O)C(C(O)c2ccc([N+](=O)[O-])cc2)C(C)(C)N1 (centres undefined),4.7%
6,Cc1cnc(NC(=O)CSc2nnc(-c3ccccc3)n2Cc2ccccc2)s1,-1.56%
7,O=C(CN1CCNCC1)Nc1ccc(Oc2ccccc2)cc1,-1.13%
8,CC1(C)Cc2c(cnn2-c2cccc(F)c2)C(NC(=O)CCN2CCCC2=O)C1 (centres undefined),2.61%
9,CCC1CCCCN1CCCNC(=O)Cn1ncn2nc(-c3ccc(OC)cc3)cc2c1=O (centres undefined),3.17%
10,O=C(NCCN1CCN(c2cccc(Cl)c2)CC1)Nc1ccccc1,12.6%
11,CC(CC(F)(F)F)N1CCC(n2nccc2NC(=O)CCCc2ccccc2)CC1 (centres undefined),-4.53%
12,CC1(C)Cc2c(sc(NC(=O)c3ccc(C(=O)c4ccccc4)cc3)c2C(N)=O)C(C)(C)N1,95.8%
13,CC(=O)N1CCN(C(=O)CCc2nc3sc4c(c3c(=O)[nH]2)CCCC4)CC1,-2.75%
14,CC(C)c1ccc(CN(C(=O)c2cc3ccccc3oc2=O)C2CCS(=O)(=O)C2)cc1 (centres undefined),3.88%
15,CCCCn1c(SCC(N)=O)nnc1-c1ccco1,-9.89%
16,O=C1OC(/C=C/c2ccccc2)=NC/1=C/c1ccco1,48.4%
17,COc1cccc(NS(=O)(=O)c2ccc3[nH]cc(C(=O)NCCC(C)C)c(=O)c3c2)c1,14.1%
18,COc1ccc2oc(C(=O)OCC(=O)N3CC(C)OC(C)C3)c(C)c2c1 (centres undefined),0.09%
19,COc1ccc2[nH]cc(C(=O)CCl)c2c1,50.5%
20,O=C(NC1CCCC1)c1cccc2c1C(=O)c1ccc(N3CCCCC3)cc1S2(=O)=O,66.2%
21,COc1ccccc1-c1nnc(NC(=O)c2ccc(S(=O)(=O)N(C)CC3CCCO3)cc2)o1 (centres undefined),45.1%
22,Cc1cccc(C(=O)Nc2nnc(S(=O)(=O)N(C)Cc3ccco3)s2)c1,17.9%
23,O=C(Nc1ccccc1)c1cccc(N2C(=O)C3C4CC(C(Br)C4Br)C3C2=O)c1 (centres undefined),7.24%
24,Cc1ccc(N(C(=O)C2CCC(=O)N2)C2(C(=O)NC3CCCC3)CCCCC2)cc1 (centres undefined),1.37%
25,COc1ccc(C2c3c(C)nn(-c4ccccc4)c3NC(=O)N2c2ccccc2)cc1 (centres undefined),42.9%
26,CCOc1ccc(N(CC(=O)NCCOc2ccc(C)cc2)S(=O)(=O)c2ccccc2)cc1,0.97%

row,Compound,inhibition
1,CCOC(=O)c1sc2cc([N+](=O)[O-])cc(SCC(C)C)c2c1N,2.8%
2,O=C(CSc1nnc(-c2ccncc2)n1-c1ccccc1)NC1CC1,-4.84%
3,CCCn1cc(S(=O)(=O)c2ccc(OC)cc2)c(=O)c2cc(OC)ccc21,1.7%
4,Cc1ccc(-n2ncc3c2CCCC3NC(=O)c2csnn2)cc1C (centres undefined),5.74%
5,CCN1CCN(C(=O)COCc2cc(-c3ccc4c(c3)OCO4)on2)CC1,-4.82%
6,CCOC(=O)C1CCCCN1C(=O)c1oc2c(Cl)cc(C)cc2c1C (centres undefined),-7.6%
7,C[N+](C)(C)CCN(Cc1ccc(Cl)cc1)c1ccccn1,6.71%
8,CCCCCCCCCS(=O)(=O)N/N=C/c1cccc([N+](=O)[O-])c1,-1.61%
9,COc1ccc(F)c(CN2CCC(n3nccc3NC(=O)C3CCOC3)CC2)c1 (centres undefined),-3.97%
10,CC(Sc1nnc(N)s1)c1ccccc1Cl (centres undefined),-3.43%
11,COc1cccc(C2=NOC(C(=O)NCc3cccs3)C2)c1 (centres undefined),21.2%
12,O=C(CN1C(=O)c2cccnc2Oc2ccc(Cl)cc21)NC1CCCCC1,-9.92%
13,BrC(=C\c1ccccc1)/C=N/N1CCN(c2ccccn2)CC1,9.41%
14,CC1CCN(C(=O)CCCN2C(=O)c3cccnc3Oc3ccc(Cl)cc32)CC1,0.12%
15,CN(CC(=O)NC1CCCCCC1)S(=O)(=O)c1ccc(Br)cc1,12.5%
16,COc1cccc(C2CC(c3ccc(C)cc3)n3ncnc3N2)c1 (centres undefined),-10.2%
17,COc1ccc(CCN2CC(C(=O)NCCc3ccccn3)CCC2=O)cc1 (centres undefined),-3.03%
18,Cc1cc(NS(=O)(=O)c2ccc(NC(=O)COc3ccccc3C(C)(C)C)cc2)no1,4.47%
19,Cn1nnnc1SCC(=O)Nc1ccccc1[N+](=O)[O-],13.8%
20,O=C(NNC(=O)c1ccc(Oc2cc(Cl)cc(Cl)c2)o1)c1ccccc1,50.8%
21,Cc1cc(C(=O)NC2CCCN(Cc3ccc(Cl)cc3)C2)no1 (centres undefined),20.1%
22,CCOc1ccc(-c2nc(S(=O)(=O)c3ccccc3)c(NC)o2)cc1,6.47%
23,COc1ccc(Cc2nnc3c4cnn(C)c4ncn23)cc1,-2.34%
24,COc1cc(Cl)ccc1OCc1cc(C(=O)NC2CCc3ccccc32)no1 (centres undefined),3.44%
25,C#CCn1cnc2c(oc3ccccc32)c1=O,2.24%
26,CC(=O)Nc1ccc(S(=O)(=O)Oc2ccccc2N2C(=O)C3C4CCC(C4)C3C2=O)cc1 (centres undefined),-3.78%

row,Compound,inhibition
1,COc1ccccc1N1CCN(C(=O)c2oc3c(c2C)C(=O)CC(C)(C)C3)CC1,2.08%
2,Cc1ccccc1CCN1CCCC(CN(C)C(=O)C(=O)c2ccco2)C1 (centres undefined),-13.1%
3,CCCc1ccc2oc(C(=O)N3CCNC(=O)C3CC(=O)OC)c(C)c2c1 (centres undefined),4.87%
4,CCN(CC)CCN(C(=O)c1ccc(S(=O)(=O)N(C)C2CCCCC2)cc1)c1nc2ccc(OC)cc2s1,-5.69%
5,CCCCCc1nnc(NC(=O)C2COc3ccccc3O2)s1 (centres undefined),20.3%
6,O=c1cc(CSc2nnc(-c3ccccc3)o2)c2ccccc2[nH]1,-7.03%
7,Cc1cccc(C2CC(c3ccc(Cl)cc3)Nc3nc(N)nn32)c1 (centres undefined),-7.92%
8,Cc1ccn2cc(CNS(=O)(=O)c3ccc4ccccc4c3)nc2c1,-6.41%
9,O=C(Nc1nnc(-c2ccncc2)o1)c1ccc2ccccc2c1,94.7%
10,O=C(N/N=C/c1ccc(O)cc1O)NC12CC3CC(CC(C3)C1)C2,4.03%
11,CCC(c1nnnn1C(C)(C)C)N(Cc1ccco1)Cc1cc2cccc(C)c2[nH]c1=O (centres undefined),3.13%
12,COc1ccc(OCc2cc(C(=O)N(C)CC3CCCCO3)no2)c(Cl)c1 (centres undefined),7.34%
13,Cc1cc(C)c(NC(=O)CC(C)(C)C)c(Cl)c1,6.12%
14,CC(C)(C)NS(=O)(=O)c1ccc(NC(=S)NC(=O)C2CCC2)cc1,3.05%
15,COc1ccc(-n2ncc3c(NCc4ccc5c(c4)OCO5)ncnc32)cc1,-4.68%
16,CCOC(=O)c1sc(NC(=O)CN2CCN(c3ccc(OC)cc3)CC2)nc1C,50.8%
17,Cc1ccc(NC(=O)CSc2n[nH]c(-c3ccco3)n2)cc1,44.5%
18,Cc1ccc(S(=O)(=O)N2CCN(Cc3nc4sc5c(c4c(=O)[nH]3)CCCC5)CC2)cc1,1.29%
19,CC(=O)c1ccccc1C(=O)N1CCCC(CCC(=O)N2CCN(c3ccccn3)CC2)C1 (centres undefined),-0.82%
20,Cn1cc(C(=O)N/N=C/C(Br)=C\c2ccccc2)ccc1=O,-5.39%
21,O=C(Nc1ccccc1NC(=O)c1ccco1)c1ccco1,-3.78%
22,COc1ccccc1N1CCN(C2CCCN(C(=O)c3oc(C)cc3C)C2)CC1 (centres undefined),-1.62%
23,Cn1c(=O)[nH]c(=O)c2c1nc(Br)n2CCC(=O)c1ccccc1,13.9%
24,Clc1ccc(-n2c(SC/C=C/c3ccccc3)nnc2-c2cccnc2)cc1,19.2%
25,COC(=O)N1C(=O)[C@@](Cc2ccccc2)(c2ccccc2)N1C(=O)OC,-8.02%
26,O=c1c2ccccc2nnn1CSc1nc2cc(Cl)ccc2c(=O)n1Cc1ccco1,6.6%

# — PubChem BioAssay AID434955 (Southern Research Specialized Biocontainment Screening …, 2010)
